Measured values as given in PubChem BioAssay AID1963320 (National Center for Advancing Translational Sciences (NCATS), 2024).
In all, about 1,300 compounds went through this assay and about 560 (43%) were called active. The set was probably picked from earlier hits. Inconclusive results, whose numbers are uncertain, are shown with a selection of clear calls. Calls follow the shape of the dose curve; as a rule, active = well fitted inhibition curve with a large enough effect; inconclusive = small, poorly fitted or top-dose-only effect; inactive = flat fitted curve, though single readings scatter. Potencies beside an inconclusive call are fits to weak or partial responses and may not hold up.

biological target: Luciferin 4-monooxygenase (Photinus pyralis) (UniProt P08659); assay: Firefly luciferase (FLuc-C-HiBiT) enzymatic inhibition screen - Functional assay; conditions: purified FLuc-C-HiBiT enzyme, luciferin luminescence; series mostly up to 32.7 µM; activity change, negative = inhibition: at the top concentration
How it was run: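 10 nM FLuc-C-HiBiT + 10 uM ATP; cpds pin-transferred, >30 min RT, dark; D-luciferin 10 uM (KM); 5-10 min RT; CCD luminescence, 10 s exposure.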
% is scaled to controls: 0 for no effect and ±100 for the full control effect; potency is read from the fitted curve at half-maximal effect; tags tell the direction and shape of the fitted curve.
Also: nearly all actives have a fitted effect of over 70% in size.

Chain of UniProt P08659 (P08659 whole entry, looked up): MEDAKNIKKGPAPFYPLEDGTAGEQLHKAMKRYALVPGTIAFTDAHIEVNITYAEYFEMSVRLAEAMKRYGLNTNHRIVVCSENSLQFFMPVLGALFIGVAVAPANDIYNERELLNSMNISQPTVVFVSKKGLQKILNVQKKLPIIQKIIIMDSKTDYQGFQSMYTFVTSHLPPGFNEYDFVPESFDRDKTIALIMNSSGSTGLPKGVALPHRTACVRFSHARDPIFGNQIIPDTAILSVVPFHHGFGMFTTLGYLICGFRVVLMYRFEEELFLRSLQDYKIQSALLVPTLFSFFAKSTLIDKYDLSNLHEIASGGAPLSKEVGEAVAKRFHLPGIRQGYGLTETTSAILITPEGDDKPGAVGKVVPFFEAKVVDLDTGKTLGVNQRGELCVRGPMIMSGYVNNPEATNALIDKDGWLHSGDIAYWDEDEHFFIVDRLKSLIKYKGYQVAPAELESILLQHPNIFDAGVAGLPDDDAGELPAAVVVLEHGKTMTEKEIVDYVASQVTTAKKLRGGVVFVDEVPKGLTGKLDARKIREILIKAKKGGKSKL

Activity change, negative = inhibition, inactive:
COc1ccc(Nc2cc(C(=O)NC3CCC(C)CC3)c3ccccc3n2)cc1OC (stereo not given) -3.68%
Cc1ccc(C(=O)Nc2ccc(-c3nc4ccccc4s3)cc2C)cc1C -5.1%
N#Cc1ccc(C(=O)Nc2ccccc2-c2nc3ccccc3s2)c(F)c1 2.21%
O=C(O)C1(Oc2ccc3ccccc3c2)CCN(c2ncnc3nc[nH]c23)CC1 -12.4%
COc1ccc(OC)c(CN2CCOc3ccc(C(=O)NCc4ccc(C)cc4)cc3C2)c1 -1.03%
COc1ccc(-c2nc3ccccc3s2)cc1NC(=O)COc1cccc(C)c1 -13.4%
O=c1oc2c(CN3CCCC3)c(O)ccc2cc1-c1ccccc1 -4.18%
COc1cccc(C(=O)Nc2ccc(-c3nc4ccc(C)cc4s3)cc2)c1OC -3.56%
COc1cccc(CC(=O)Nc2ccc(-c3nc4ccccc4s3)cc2Cl)c1 -9.4%
CCSc1ccc(C(=O)Nc2ccc(-c3nc4ccc(C)cc4s3)cc2)cc1 -4.86%
COc1ccc(CC(=O)Nc2ccc(-c3nc4ccccc4s3)cc2Cl)cc1 -10.8%
Clc1cccc(-n2ncc3c(N4CCC(Cc5ccccc5)CC4)ncnc32)c1 -3.55%
COc1ccc(-c2nc3ccccc3s2)cc1NC(=O)COc1ccccc1C -15.5%
O=C(Nc1ccc(-c2nc3ccccc3s2)c(O)c1)c1ccc(Br)cc1 4.85%
Cc1ccc2oc(=O)c(-c3nc(-c4cccs4)no3)cc2c1 -13.6%
O=C(O)C1CN(Cc2ccc(-c3nc4cc(Cc5ccccc5F)ccc4s3)c(F)c2)C1 3.55% [at 5.62 µM]
CC(C)c1nc2c(c(-c3ccc(O)cc3)n1)CCN(Cc1ccccn1)CC2 -5.61%
Cn1cc(-c2ccc(Cl)cc2)cc1C(=O)O -14.8%
CCc1ccc2oc(-c3ccc(NC(=O)c4ccc(OC)c(Br)c4)cc3)nc2c1 -12.5%
COCC(=O)N1CCc2nc(C)nc(-c3ccc(OC)cc3)c2C1 -5.11% [at 49.3 µM]
Cc1ccc(-c2nc3ccccc3s2)cc1NC(=O)COc1ccccc1 -9.31%
O=C1c2cnc(-c3ccccc3)nc2OCCN1Cc1ccccc1 -19.8% [at 49.3 µM]
CN(C)c1ccc(-c2noc([C@@H]3CCCN3Cc3cnc4ccccc4c3)n2)cn1 -1.75% [at 49.3 µM]
O=C(Nc1ccccc1)C1CCN(C(=O)N2CC3CC(C2)[C@H]2CCCC(=O)N2C3)CC1 (stereo not given in full) 4.9%

Potency, active:
Cc1cc(-c2cc3c(cn2)CN(Cc2cccs2)CCN3)ccn1 11.4 µM
C=Cc1ccc(-c2nc3ccc(OC)cc3s2)cc1 0.442 µM
CCOc1ccc(-c2cn3nc(CC(C)C)sc3n2)cc1 4.95 µM
CCC(C)(C)NC(=O)c1cccc2c1CCN2C(=O)Nc1cccc(C)c1 7.85 µM
Fc1cccc(Nc2nc(-c3ccccc3)no2)c1 7 µM
O=C1c2cnc(-c3cc4ccccc4o3)nc2OCCN1Cc1ccccc1 1.61 µM
CCOc1ccccc1NC(=O)Nc1cccc(-c2ccc(N3CCOCC3)nn2)c1 3.94 µM
COc1cccc(-c2noc(-c3ccc(N4CCCC(CO)C4)nc3)n2)c1OC (stereo not given) 2.79 µM
COc1ccc(-c2cc(N3CCCC(NC(=O)c4ccc5[nH]ccc5c4)C3)n[nH]2)cc1 (stereo not given) 4.95 µM
Cc1ccc(-c2cc3c(=O)n(CCNC(=O)Cc4ccsc4)ccn3n2)c(C)c1 6.24 µM
Cn1ccc2c(C(=O)NCCc3cnc[nH]3)nc(-c3ccc(N4CCOCC4)cc3)cc21 4.53 µM
Cc1cn2c(=O)cc(COC(=O)c3cccc(NC(=O)COc4ccccc4Cl)c3)nc2s1 7 µM
CC(=O)Nc1cccc(C(=O)NCCn2ccn3nc(-c4ccc(C)cc4C)cc3c2=O)c1 9.89 µM
COc1ccc(C(=O)Nc2onc3c2CCCC3)cc1 1.97 µM
Nc1nc2c([nH]c(=S)n2C2OC(CO)C(O)C2O)c(=O)[nH]1 (stereo not given) 2.48 µM
Cc1ccc(/C=C/c2nc3ccccc3[nH]2)cc1 0.0442 µM
CCCCCc1nn2cc(-c3ccccc3)nc2s1 0.624 µM

Potency, inconclusive:
CC(=O)NC1(C)CN(Cc2ccc(-c3ccc(Oc4ccccc4)cc3)s2)C1 25.5 µM [inhibitor, partial curve]
COc1ccc(-c2cc3c(=O)n(CCNC(=O)c4c(F)cccc4Cl)ccn3n2)cc1 7 µM [inhibitor, partial curve]
COc1cccc(CN2CCNc3cc(Nc4ccccc4)ncc3C2)c1 18 µM [inhibitor, partial curve]
O=C(Nc1cccnc1)c1nc2c(o1)CCN(Cc1nccs1)CC2 20.2 µM [inhibitor, single point]
O=C(Nc1ccc2c(c1)OCCO2)N1CC(c2nc(CCOCC3CC3)no2)C1 9.89 µM [inhibitor, partial curve, poor fit]
Clc1ccc(Nc2ncc(-c3cccnc3)c3c2OCC3)cc1 18 µM [inhibitor, partial curve]
CC(=O)c1cccc(Nc2nn(-c3ccc(OC(F)(F)F)cc3)nc2C(C)=O)c1 4.42 µM [inhibitor, partial curve, poor fit]
Cc1ccc(C(=O)COC(=O)c2cc(-c3cccs3)nc3ccccc23)cc1 12.4 µM [inhibitor, partial curve]
c1ccc2cc(-c3nc(C4CCOC4)no3)ncc2c1 (stereo not given) 17.6 µM [inhibitor, partial curve]
CN(Cc1ccccc1)C(=O)[C@H]1C[C@@H](O)[C@H](O)[C@@H]2N=C(Nc3ccc(-n4cccn4)cc3)S[C@@H]21 11.1 µM [inhibitor, partial curve]
O=C(Nc1ccc2oc(-c3ccccc3F)nc2c1)c1ccccc1Cl 5.56 µM [inhibitor, full curve]
O=C(NC[C@H]1Cn2cc(-c3ccc4c(c3)OCCCO4)nc2CO1)c1ccc2c(c1)OCO2 9.89 µM [inhibitor, partial curve]
Cc1c(-c2ccccc2)[nH]c2c(CNC(=O)C3=NN(C)C(=O)CC3)cc(Cl)cc12 12.4 µM [inhibitor, partial curve]
CSc1ccc(CNC(=O)C2CCN(C(=O)c3ncn4c3COC(c3ccccc3)C4)CC2)cc1 (stereo not given) 6.24 µM [inhibitor, partial curve]
Cc1ccc(-c2cc3c(=O)n(CCNC(=O)c4ccco4)ccn3n2)c(C)c1 9.89 µM [inhibitor, partial curve]
Cc1nn(-c2ccc(C(C)(C)C)cc2)c(C)c1[C@@H]1C=C[C@@H](NC(=O)CCCC(=O)O)C1 20.2 µM [inhibitor, partial curve]
OC1CN(Cc2ccc(-c3cnc4c(OCc5ccccc5)nccn34)cc2)C1 20.2 µM [inhibitor, partial curve]
CCc1nn2c(-c3ccco3)ccnc2c1-c1ccc(F)cc1 7.85 µM [inhibitor, partial curve, poor fit]
O=C(O)c1ccnc(-c2ccnc(NCCN3CCCCC3=O)n2)c1 11.1 µM [inhibitor, partial curve]
CCc1n[nH]c(CC2CCN(C(=O)Nc3ccc4c(c3)OCCO4)CC2)n1 11.1 µM [inhibitor, partial curve]
CN(C)c1ccc(-c2nc(C3CCOC3)no2)cc1 (stereo not given) 9.89 µM [inhibitor, partial curve]
Cc1cc(-c2cc3c(cn2)CN(Cc2nccn2C)CCN3)ccn1 16.1 µM [inhibitor, partial curve]
O=C([C@@H]1C[C@@H](O)[C@H](O)[C@@H]2NC(=S)N(c3ccc4c(c3)OCO4)[C@@H]21)N1CCOCC1 14.3 µM [inhibitor, partial curve]
CC1(NC(=O)C2CC2)CN(Cc2nc(-c3ccccc3)cs2)C1 20.2 µM [inhibitor, partial curve]
O=C1C[C@H]2CC[C@@H](CN1)N2Cc1ccc(OCc2ccccc2)cc1 14 µM [inhibitor, partial curve, poor fit]
O=C(Cc1cccc(F)c1)N1CC(Oc2ccc(-c3nc(-c4ccccc4)no3)cc2)C1 12.4 µM [inhibitor, partial curve]
O=C(Nc1cccc(-c2nc3ccccc3[nH]2)c1)c1ccccc1F 14 µM [inhibitor, partial curve]
O=C(O)c1ccc(-c2noc(-c3ccccc3C(F)(F)F)n2)cc1 12.4 µM [inhibitor, partial curve]
CC(C)c1ccc(C(=O)Nc2cccc3cccnc23)cc1 9.89 µM [inhibitor, partial curve]
CC1(Cc2ccc3c(c2)OCO3)CCCN(C(=O)c2ccc3ncsc3c2)C1 (stereo not given) 9.89 µM [inhibitor, partial curve]
Brc1ccc(-c2cn3cc(Cc4ccccc4)sc3n2)cc1 0.881 µM [inhibitor, full curve]
O=C(CSc1nccn1Cc1ccco1)Nc1ccc(OC(F)(F)F)cc1 12.4 µM [inhibitor, partial curve, poor fit]
CCn1c(C2CCCN(C(=O)Nc3ccc4c(c3)OCCO4)C2)nn(C)c1=O (stereo not given) 11.1 µM [inhibitor, partial curve]
COc1cccc(-c2cc3c(=O)n(CCNC(=O)c4ccccc4Cl)ccn3n2)c1 8.81 µM [inhibitor, partial curve, poor fit]
